Data reported in the supplement of paper PMC11098506.
± gives the standard deviation of the averaged measurements. Some of the results follow.

B1: VDAC2; numbered along this chain (parent)
chain: MATHGQTCARPMCIPPSYADLGKAARDIFNKGFGFGLVKLDVKTKSCSGVEFSTSGSSNTDTGKVTGTLETKYKWCEYGLTFTEKWNTDNTLGTEIAIEDQICQGLKLTFDTTFSPNTGKKSGKIKSSYKRECINLGCDVDFDFAGPAIHGSAVFGYEGWLAGYQMTFDSAKSKLTRNNFAVGYRTGDFQLHTNVNDGTEFGGSIYQKVCEDLDTSVNLAWTSGTNCTRFGIAAKYQLDPTASISAKVNNSSLIGVGYTQTLRPGVKLTLSALVDGKSINAGGHKVGLALELEA
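Further: sorting relied on GFP fluorescence, which stays low in these cells lacking VDAC2 and climbs sharply once wild-type VDAC2 is expressed.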

Variants of: B1
Assay: log2 fold difference of barcode abundance, GFP-BAK-high vs GFP-BAK-low sorted fraction (log2 ratio); higher = VDAC2 variant stabilises more GFP-BAK at mitochondria
Conditions: with BAK1 (mouse, GFP-tagged), Mcl1-/- Bax-/- Bak-/- Vdac2-/- MEF + GFP-mBAK
Procedure: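 Deep mutational scan of human VDAC2 (FLAG-tagged) with single amino acid substitutions at positions Q165–F180 (β10–11 loop), each barcoded clone expressed by retrovirus in Mcl1/Bax/Bak/Vdac2-deficient MEFs that also express GFP-tagged mouse BAK. Cells were sorted into GFP-high and GFP-low fractions and barcodes counted by Illumina sequencing. The score is log2(CPM) in GFP-BAK-high minus log2(CPM) in GFP-BAK-low, per barcode; barcodes of the same variant are averaged. It reports BAK recruitment and stabilisation at the mitochondrial outer membrane.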
Variant T176P has a log2 fold difference of -0.128 ± 0.54. For T176R, the log2 fold difference was -0.506 ± 0.71. T176Q showed a log2 fold difference of 0.361 ± 1.4. T176W gave a log2 fold difference of -0.369 ± 0.4. T176A was tested, and the log2 fold difference was -0.166 ± 0.86. For T176I, the log2 fold difference was -0.168 ± 1.1. Variant T176N has a log2 fold difference of -0.844 ± 0.56. With T176Y the log2 fold difference was -0.154 ± 0.91. Work on T176V yielded a log2 fold difference of 0.152 ± 1.1. Variant T176D has a log2 fold difference of 0.194 ± 0.64. T176L was tested, and the log2 fold difference was -0.656 ± 1.1. T176M was tested, and the log2 fold difference was -0.494 ± 0.73. Variant T176S has a log2 fold difference of 0.263 ± 0.8. For T176E, the log2 fold difference was 0.331 ± 1.3. Work on T176H yielded a log2 fold difference of -1.56. Variant T176C has a log2 fold difference of -0.0918 ± 0.84. Variant T176G has a log2 fold difference of 0.235 ± 1.1. Variant T176F has a log2 fold difference of -0.422 ± 0.76. T176K was tested, and the log2 fold difference was -0.466 ± 1.3. Variant L175W has a log2 fold difference of -0.123 ± 0.99. Work on L175H yielded a log2 fold difference of 0.0297 ± 0.92. L175N was tested, and the log2 fold difference was -0.199 ± 1.3. Variant L175R has a log2 fold difference of -0.0235 ± 0.84. Variant L175Y has a log2 fold difference of 0.0732 ± 1.4. L175Q was tested, and the log2 fold difference was -0.225 ± 0.66. L175V gave a log2 fold difference of 0.412 ± 0.84. L175G showed a log2 fold difference of -0.433 ± 1.1. L175S gave a log2 fold difference of -0.514 ± 0.83. L175M gave a log2 fold difference of 1.05 ± 1.6. With L175A the log2 fold difference was -0.4 ± 1.1. With L175D the log2 fold difference was -0.751 ± 0.58. For L175C, the log2 fold difference was 0.453 ± 1. With L175T the log2 fold difference was 0.333 ± 1. Work on L175F yielded a log2 fold difference of 0.19 ± 0.6. L175I gave a log2 fold difference of -0.0483 ± 0.65. Work on L175P yielded a log2 fold difference of -0.959 ± 0.7. L175K gave a log2 fold difference of -1.37 ± 0.53. In the case of L175E, the log2 fold difference is reported as -0.724 ± 1.2. A171K showed a log2 fold difference of -0.604 ± 0.85. For A171G, the log2 fold difference was -0.547 ± 1. A171Y showed a log2 fold difference of -0.0538 ± 0.51. A171H showed a log2 fold difference of 0.461 ± 0.74. With A171E the log2 fold difference was 1.02 ± 0.69. A171D was tested, and the log2 fold difference was 0.69 ± 1. Work on A171T yielded a log2 fold difference of 0.454 ± 0.91. For A171P, the log2 fold difference was 0.514 ± 1.3. A171W was tested, and the log2 fold difference was -1.21 ± 0.6. With A171C the log2 fold difference was 0.631 ± 0.97. A171S showed a log2 fold difference of -0.589 ± 0.81. For A171F, the log2 fold difference was 0.829 ± 1. A171I showed a log2 fold difference of 1.22 ± 0.5. Variant A171R has a log2 fold difference of -0.84 ± 0.74. With A171Q the log2 fold difference was -0.529 ± 1. In the case of A171V, the log2 fold difference is reported as 0.962 ± 0.81. A171M gave a log2 fold difference of 1.1 ± 0.63. With A171N the log2 fold difference was -0.514 ± 1.1. For A171L, the log2 fold difference was 1.14 ± 0.77. Variant S173E has a log2 fold difference of 2.03 ± 1. S173F gave a log2 fold difference of 0.843 ± 1.3. In the case of S173M, the log2 fold difference is reported as 0.0867 ± 1.6. Work on S173A yielded a log2 fold difference of 0.541 ± 0.97. S173V gave a log2 fold difference of 0.0865 ± 0.9. Variant S173G has a log2 fold difference of 0.799 ± 1. S173C showed a log2 fold difference of -0.537 ± 0.82. S173I showed a log2 fold difference of 0.0851 ± 0.98. S173D showed a log2 fold difference of 0.492 ± 1.4. For S173P, the log2 fold difference was -0.988 ± 0.82. In the case of S173W, the log2 fold difference is reported as -0.644 ± 0.96. Work on S173T yielded a log2 fold difference of -0.25 ± 0.8. With S173Y the log2 fold difference was -0.238 ± 1.1. With S173N the log2 fold difference was 0.536 ± 0.82. For S173Q, the log2 fold difference was 0.497 ± 1.7. For S173H, the log2 fold difference was -0.352 ± 0.43. In the case of S173R, the log2 fold difference is reported as -0.222 ± 0.86. In the case of S173L, the log2 fold difference is reported as -0.0284 ± 0.97. S173K showed a log2 fold difference of -0.75 ± 0.63. For Q165C, the log2 fold difference was 0.225 ± 1.5. Q165G gave a log2 fold difference of 0.428 ± 0.71. With Q165V the log2 fold difference was -0.146 ± 0.8. Q165A was tested, and the log2 fold difference was 0.454 ± 1.4. Work on Q165I yielded a log2 fold difference of 0.601 ± 0.87. For Q165M, the log2 fold difference was 0.712 ± 0.44. Q165W gave a log2 fold difference of 0.201 ± 0.72. Variant Q165P has a log2 fold difference of -0.613 ± 1.4. For Q165D, the log2 fold difference was -0.602 ± 0.7. Work on Q165H yielded a log2 fold difference of 0.135 ± 0.9. Variant Q165Y has a log2 fold difference of -0.997 ± 1.9. Q165L was tested, and the log2 fold difference was 0.22 ± 1.2. With Q165T the log2 fold difference was 0.613 ± 0.92. Variant Q165R has a log2 fold difference of 0.305 ± 0.69. Q165F was tested, and the log2 fold difference was 0.391 ± 0.37. With Q165S the log2 fold difference was 0.315 ± 0.94. Q165E gave a log2 fold difference of 0.573 ± 1.1. With Q165K the log2 fold difference was 0.357 ± 1.3. In the case of Q165N, the log2 fold difference is reported as 0.281 ± 1.4. N178F gave a log2 fold difference of 0.462 ± 0.93. N178Y showed a log2 fold difference of -0.494 ± 0.97. N178T gave a log2 fold difference of 0.186 ± 0.87. In the case of N178H, the log2 fold difference is reported as -0.0581 ± 0.64. N178E gave a log2 fold difference of 0.44 ± 1.1. Variant N178K has a log2 fold difference of 0.222 ± 1. N178C showed a log2 fold difference of 0.279 ± 0.64. Work on N178A yielded a log2 fold difference of 0.461 ± 1.1. N178V was tested, and the log2 fold difference was 0.0386 ± 0.82. Work on N178W yielded a log2 fold difference of 0.419 ± 0.89. In the case of N178P, the log2 fold difference is reported as 0.0578 ± 1.2. In the case of N178I, the log2 fold difference is reported as 0.729 ± 0.74. With N178R the log2 fold difference was 0.424 ± 0.97. With N178Q the log2 fold difference was 0.722 ± 0.96. In the case of N178S, the log2 fold difference is reported as -0.39 ± 1. Variant N178M has a log2 fold difference of 0.0996 ± 0.73. N178L was tested, and the log2 fold difference was 0.307 ± 0.98. N178D showed a log2 fold difference of -0.107 ± 0.6. Variant N178G has a log2 fold difference of 0.494 ± 0.87. S170Q was tested, and the log2 fold difference was 0.353 ± 0.41. In the case of S170K, the log2 fold difference is reported as 0.285 ± 0.86. S170H gave a log2 fold difference of -0.179 ± 1.5. With S170V the log2 fold difference was -0.895 ± 1. With S170C the log2 fold difference was -0.341 ± 0.97. With S170L the log2 fold difference was -0.224 ± 0.99. For S170M, the log2 fold difference was 0.136. With S170T the log2 fold difference was 0.139 ± 0.76. S170A was tested, and the log2 fold difference was 0.671 ± 1.1. Variant S170I has a log2 fold difference of -0.949 ± 2.4. Variant S170P has a log2 fold difference of -0.99 ± 1.2. In the case of S170F, the log2 fold difference is reported as 0.812 ± 0.92. For S170N, the log2 fold difference was 0.00725. With S170E the log2 fold difference was 0.876 ± 0.56. For S170R, the log2 fold difference was -0.591 ± 0.96. In the case of S170G, the log2 fold difference is reported as 0.631 ± 1. In the case of S170W, the log2 fold difference is reported as -0.594 ± 0.8. S170Y was tested, and the log2 fold difference was 0.214 ± 0.73. In the case of F168K, the log2 fold difference is reported as -0.253 ± 1.1. F168Q gave a log2 fold difference of -0.714 ± 0.61. With F168M the log2 fold difference was -0.00625. Work on F168T yielded a log2 fold difference of -0.818 ± 0.87. For F168I, the log2 fold difference was -0.0402 ± 1.3. With F168D the log2 fold difference was -0.818 ± 0.41. F168R gave a log2 fold difference of -0.344 ± 1.2. F168V showed a log2 fold difference of -0.593 ± 1. F168N showed a log2 fold difference of -0.462 ± 1.3. F168L showed a log2 fold difference of -0.433 ± 0.9. F168S was tested, and the log2 fold difference was -0.831 ± 0.66. F168Y was tested, and the log2 fold difference was 0.38 ± 0.76. F168A showed a log2 fold difference of -0.327 ± 1.1. In the case of F168H, the log2 fold difference is reported as -0.69 ± 0.72. In the case of F168E, the log2 fold difference is reported as -0.35 ± 1. F168C showed a log2 fold difference of -0.838 ± 1.1. F168P was tested, and the log2 fold difference was -1.28 ± 0.72. F168W showed a log2 fold difference of 1.3 ± 0.75. For F168G, the log2 fold difference was -0.784 ± 0.78.
